According to patent publication US7442773B2, “Universal peptide-binding scaffolds and protein chips” (The Board of Trustees of The University of Illinois, priority 2004, dated 2008):

Test system: monoclonal antibody KL304
Assay: Reactivity with monoclonal antibody KL304, which recognizes empty (peptide-free) HLA-DR molecules
Assay type: binding
Details: KL304 specifically recognizes empty (peptide-free) HLA-DR molecules

B1: DWP-5: evolved single-chain HLA-DR1 variant (α-linker-β) from library lib-αβ, SEQ ID NOs:33 and 34 (protein)
chain: [letters of about 200 residues left out]NLGGGGSGGGRSGGGGSGDTRPRFLWQLKFECHFFNGTERVRFLERCIYNQEESVRFDSDVGEYRAVTELGRPDAEYWNSQKDLLEQRRAAADTYCRHNYGVGESFSVRRRVEPKVTVYPSKTQPLQHHNLLVCSVSGFYPGSIEVRWFRNGQEEKAGVVSTGLIQNGDWTFQTLVMLETVPRSGEVYTCQVEHPSVTSPLTVEWRARSESAQSKLESRGPFEGKPIPNPLLGLDSTRTGHHHHHH
modifications: Sequence of mutant DWP-5
reactivity with monoclonal antibody KL304: lack of reactivity
